From PubChem BioAssay AID1347073 (National Center for Advancing Translational Sciences (NCATS), 2019) come the findings set out here.

Out of some 45,000 compounds screened, about 200 (0.44%) were called active. Not shown: some 7% with an inconclusive outcome. The call rests on the fitted dose curve; in most records, active means well fitted activation curve with a large enough effect; inconclusive means small, poorly fitted or top-dose-only effect; inactive means no such curve, though single readings can be large or run the other way. The list shows a part of the results.

A short description of this assay: qHTS of TDP-43 Inhibitors: NCGC Sytravon Library Screen. Further: 0% is about no effect; nearly all actives have a fitted effect of over 55% in size. The settings on record: yeast TDP-43 toxicity rescue, BacTiter-Glo growth, 24 h; series mostly up to 46.1 µM; growth rescue (activation): at the top concentration. The gist of the method:
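TDP-43-expressing yeast, pregrown in raffinose, seeded at OD600 0.02 in galactose medium with compound for 24 hr at 30 deg C. Growth read by BacTiter-Glo luminescence, so rescue of toxicity appears as activation.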
Background: Quantitative high-throughput screening tests each substance at several concentrations.
Take `COc1cc(OC)c(OC)cc1CNC(=O)c1cc(=O)[nH]c2ccccc12`: the “growth rescue (activation)” value is inactive: 8.28%. Regarding `O=C(Nc1cnc2sc3c(n2c1=O)CCCC3)c1ccc(F)cc1`, the “growth rescue (activation)” value was inactive: 20.5%. Take `CC1CN(c2nc(Nc3ccccc3F)nc(N)c2[N+](=O)[O-])CC(C)O1` (stereo not given): the “growth rescue (activation)” value was inactive: 25.6%. On to `NC(=O)c1ccc(NC(=O)Cc2cccs2)cc1`, for which the “growth rescue (activation)” value was inactive: -5.63%. For `COC(=O)C1=CN(Cc2ccc(OC)cc2)C=C(C(=O)OC)C1c1ccc(O)c(OC)c1` the value was inactive: -13.5%.

Take `O=C(N/N=C1\CCCc2ccccc21)c1ccccc1Cl`: the “growth rescue (activation)” value is inactive: 15.2%. For `O=C(Nc1cccnc1)C1CC(=O)N(c2ccc(F)cc2)C1` (stereo not given) the value was inactive: 0.663%; for `Cc1ccc(C(CC(=O)O)Nc2nc(N3CCOCC3)nc(N3CCOCC3)n2)cc1` (stereo not given), inactive: -14.6%; for `Cc1ccc(CSCCNC(=O)c2ccccc2)cc1`, inactive: 22%. Regarding `COc1ccc(N(C(=O)c2snc(C(N)=O)c2N)C(C(=O)NC2CCCC2)c2ccco2)cc1` (stereo not given), the “growth rescue (activation)” value was inactive: 12.2%. For `OCCNCc1cccc(OCc2ccc(Cl)cc2)c1` the value was inactive: -4.64%; for `CCC(C)NC(=O)c1ccc(CSCc2ccccc2Cl)o1` (stereo not given), inactive: 16.7%; for `CC1=C(C)CC(C(=O)NCCc2ccc(F)cc2)C(C(=O)O)C1` (stereo not given), inactive: -3.71%. Take `CCn1c(-c2cc(-c3ccc(C)cc3)nc3ccccc23)n[nH]c1=S`: the “growth rescue (activation)” value is inactive: 9.07%. With `CC(C)C(OC(=O)c1nsc(Cl)c1Cl)C(=O)NCc1ccccc1` (stereo not given), the “growth rescue (activation)” value is inactive: -2.84%.

In the case of `CCN(CC)C1CCS(=O)(=O)C1` (stereo not given), the “growth rescue (activation)” value was inactive: -3.63%. For `CCc1c(C)nc2nncn2c1Nc1cccc(C)c1`, the “growth rescue (activation)” value is inactive: 31.1%. With `COC(=O)[C@@H]1Cc2c([nH]c3ccccc23)C(C)(C)N1C(=O)CCl`, the “growth rescue (activation)” value was inactive: 5.2%. Take `COc1ccc(NC(=O)CN2C(=O)c3ccccc3S2(=O)=O)cc1OC`: the “growth rescue (activation)” value was inactive: -20.8%. As for `COc1ccc(N2CCN(C(=O)CSc3nc4ccccc4c(=O)[nH]3)CC2)cc1`, the “growth rescue (activation)” value is inactive: 15.2%. As for `O=[n+]1cc(-c2ccc(Cl)cc2)n([O-])c2c1CCCCC2`, the “growth rescue (activation)” value was inactive: -11.1%. Consider `COc1ccc(CCC(=O)Nc2ccc3c(c2)OCO3)cc1OC`, for which the “growth rescue (activation)” value was inactive: -0.696%. Consider `CCOC(=O)c1c(/N=C/c2ccc(C)cc2O)sc2c1CCN(C)C2`, for which the “growth rescue (activation)” value is inactive: -19.9%. For `CCOC(=O)C1(Cc2cccc(OC)c2)CCCN(Cc2nccn2CC)C1` (stereo not given) the value was inactive: -10.2%; for `COc1ccccc1-c1nnc(SCC(=O)NC2CCCCC2)n1N`, inactive: 11.3%; for `CCC(C)S(=O)(=O)c1snnc1C` (stereo not given), inactive: 6.93%. To `N#C/C(=C/c1ccc(N2CCOCC2)o1)C(=O)N1CCOCC1` belongs inactive: 3.21%; to `O=C(CCCCCNC(=O)c1ccccc1)N/N=C/c1ccc(F)cc1`, inactive: 24.9%.

Regarding `CC(NC(=O)c1ccc2ccccc2n1)c1ccc(Br)cc1` (stereo not given), the “growth rescue (activation)” value was inactive: -7.52%. Consider `CCOC(=O)COc1ccc([N+](=O)[O-])cc1`, for which the “growth rescue (activation)” value is inactive: 1.24%. Regarding `CC(O)(c1ccc(F)c(F)c1)c1nc(-c2ccoc2)cs1` (stereo not given), the “growth rescue (activation)” value was inactive: 21.4%.

In the case of `COc1ccc(N/C=C/C(=O)c2ccc(Cl)cc2)cc1`, the “growth rescue (activation)” value is inactive: 4.41%. To `NS(=O)(=O)c1ccc(CNC(=S)Nc2ccc(Cl)c(Cl)c2)cc1` belongs inactive: 25.1%; to `COCCCn1cc(C(=O)c2ccccc2OCC(=O)Nc2cccc(F)c2)cc(C#N)c1=O`, inactive: 4.5%. Turning to `COCCCNc1nc2nonc2nc1N1CCN(Cc2cccc(C)c2)CC1`, the “growth rescue (activation)” value was inactive: 1.64%.

Turning to `Oc1ccc(Nc2nc(-c3ccc(Cl)cc3)nc3ccccc23)cc1`, the “growth rescue (activation)” value is inactive: -38.8%. `Cc1ccsc1CN(C)Cc1nc(C2CC2)no1`: the “growth rescue (activation)” value is inactive: 11%. With `COc1ccc(S(=O)(=O)N2CCC3(CC2)OCCO3)cc1`, the “growth rescue (activation)” value was inactive: 8.17%. For `CCOc1ccc(C(=O)/C=C/Nc2ccc(S(=O)(=O)Nc3onc(C)c3C)cc2)cc1` the value was inactive: -13%; for `C=CCn1c(C)nc2c(sc3nc4c(cc32)COC(C)(C)C4)c1=O`, inactive: 12.8%.

Regarding `CC(=O)Nc1cc(-c2cccc(C(=O)N(C)C)c2)cn2c(-c3cccc(C(F)(F)F)c3)cnc12`, the “growth rescue (activation)” value is inactive: -2.79%.

On to `Cc1ccc(-c2nnn(CC(=O)N(CCN3CCOCC3)C(C(=O)NC(C)(C)C)c3ccco3)n2)cc1` (stereo not given), for which the “growth rescue (activation)” value was inactive: 4.4%. For `CCc1n[nH]c(=S)n1/N=C/c1cc(Br)c(OC)cc1OC`, the “growth rescue (activation)” value was inactive: 22.5%. For `C/C(=N\NC(=O)c1c(C)nc2ccccn12)c1ccc(N2CCOCC2)cc1`, the “growth rescue (activation)” value is inactive: 1.01%. With `COc1ccc(NC(=O)C2CCC(CNc3c(N4CCCCC4)c(=O)c3=O)CC2)c(OC)c1` (stereo not given), the “growth rescue (activation)” value is inactive: -16.7%. To `Cc1c(NS(=O)(=O)c2cccc(C(=O)NCc3ccccc3)c2)c(=O)n(-c2ccccc2)n1C` belongs inactive: 0.673%; to `COc1cc2[nH]c3c(=O)n(N)c(=O)[nH]c3c2cc1OC`, inactive: 6.07%; to `CS(=O)(=O)c1cccc(C(=O)NCc2ccc(F)cc2)c1`, inactive: 8.04%. As to `CN1CCCC(OC(=O)c2cccc(Cl)c2)C1` (stereo not given), the “growth rescue (activation)” value is inactive: 5.81%.

With `CCOc1ccc(NC(=O)CSc2nc(-c3cccs3)cc(C(F)(F)F)n2)c([N+](=O)[O-])c1`, the “growth rescue (activation)” value was inactive: 16.3%. In the case of `O=C(CSc1nc2c(c(=O)[nH]1)CCC2)Nc1ccccc1Cl`, the “growth rescue (activation)” value is inactive: 10.1%. On to `COc1ccccc1CNC(=O)c1cc(=O)c2ccccc2o1`, for which the “growth rescue (activation)” value is inactive: 6.38%. Turning to `CCc1nc2ccc(C(=O)NCCCN3CCCC3=O)cn2c1N(C)CCC(C)C`, the “growth rescue (activation)” value is inactive: 10.9%. With `O=C(CCC(=O)Nc1ccc(Cl)cc1)N/N=C/c1ccc2c(c1)OCO2`, the “growth rescue (activation)” value was inactive: 9.49%. Consider `O=[N+]([O-])c1c(NCc2ccccc2)cc(N2CCc3ccccc3C2)c2nonc12`, for which the “growth rescue (activation)” value is inactive: 3.09%. `Cc1cc(C(F)F)nn1CC(=O)NC1C(=O)N2C(C(=O)O)=C(CSc3nnnn3C)CSC12` (stereo not given): the “growth rescue (activation)” value is inactive: 2.83%. For `COc1ccccc1OCC(=O)OCC(=O)Nc1sccc1C(N)=O` the value was inactive: -10.5%; for `CCc1ccc(NC(=O)CNCc2ccc(OC)c(OC)c2)cc1`, inactive: 10.4%. Turning to `COc1ccc(Br)cc1S(=O)(=O)NCCCN1CCOCC1`, the “growth rescue (activation)” value is inactive: -11.2%. For `N#Cc1c(C(F)(F)F)cc(-c2ccccc2)nc1SCc1nc(N)nc(N2CCOCC2)n1`, the “growth rescue (activation)” value was inactive: 27.3%. In the case of `Cc1ccc(N/N=C(\C#N)C(=N)N2CCCCC2)cc1`, the “growth rescue (activation)” value is inactive: -15.9%. To `COc1ccc(N/C=C/C(=O)C(C)(C)C)cc1` belongs inactive: -6.47%; to `CC1=C(C(=O)OCC2CCCO2)C(c2ccccc2)C2=C(CC(C)(C)CC2=O)N1` (stereo not given), inactive: -3.89%. For `CCOc1cc(CNn2cnnc2)cc(Cl)c1OCC(=O)NC(C)(C)C`, the “growth rescue (activation)” value is inactive: -5.89%. To `O=S(=O)(c1ccc(Cl)cc1)N1CCN(CCc2ccccc2)CC1` belongs inactive: -10.9%; to `CC(C)NC(C(=O)Nc1cc(Cl)cc(Cl)c1)c1ccccc1` (stereo not given), inactive: 14.5%.

In the case of `COc1cccc(NC(=O)N2CCN(c3nnnn3-c3ccccc3)CC2)c1`, the “growth rescue (activation)” value was inactive: 0.336%.

In the case of `COc1ccc(CN2CCN(Cc3c[nH]c4ccccc34)CC2)cc1`, the “growth rescue (activation)” value was inactive: -15.1%. For `COc1cc(NC(=O)c2cc(OC)c(OC)c(OC)c2)c2ncccc2c1`, the “growth rescue (activation)” value is inactive: 21.1%.

For the molecule `COc1ccc(-c2cc3nc(NCCN4CCCC4)n(C)c(=O)c3s2)cc1OC`, the “growth rescue (activation)” value was inactive: 8.45%.
